Results: PubChem BioAssay AID2107 (National Center for Advancing Translational Sciences (NCATS), 2009)
The campaign covered roughly 240,000 compounds. About 20 (0.008%) were called active. The shares of active, inactive and inconclusive entries below differ from those in the screen. Calls follow the shape of the dose curve; as a rule, active = well fitted inhibition curve with a large enough effect; inconclusive = small, poorly fitted or top-dose-only effect, or effect the other way; inactive = flat fitted curve, though single readings scatter. Potencies beside an inconclusive call are fits to weak or partial responses and may not hold up.
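For activity change, negative = inhibition in this document: 0% = enzyme with vehicle and -100% = no enzyme basal signal.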
Potency is read from the fitted curve at half-maximal effect; tags tell the direction and shape of the fitted curve.

What follows are compounds tested against Alpha-galactosidase A (Homo sapiens) (UniProt P06280) (assay: qHTS Assay for Inhibitors and Activators of Human alpha-Galactosidase From Spleen Homogenate). Conditions: 4MU-alpha-Gal fluorescence, 40 min; activity change, negative = inhibition: at 80 µM (top of the series).
Chain of UniProt P06280 (P06280 whole entry, looked up): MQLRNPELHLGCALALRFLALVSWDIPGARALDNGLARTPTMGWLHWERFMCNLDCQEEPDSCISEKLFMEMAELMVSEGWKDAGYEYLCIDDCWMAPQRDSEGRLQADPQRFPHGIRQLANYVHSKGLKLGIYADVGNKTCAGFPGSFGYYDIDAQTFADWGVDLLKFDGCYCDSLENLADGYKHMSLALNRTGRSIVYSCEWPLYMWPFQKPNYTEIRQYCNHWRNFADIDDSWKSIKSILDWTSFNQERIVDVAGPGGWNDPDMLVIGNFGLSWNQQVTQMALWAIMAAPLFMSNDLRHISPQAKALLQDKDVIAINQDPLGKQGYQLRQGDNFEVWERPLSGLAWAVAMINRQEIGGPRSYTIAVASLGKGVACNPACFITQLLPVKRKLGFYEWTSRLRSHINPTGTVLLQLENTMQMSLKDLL
Summary of the method: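 Fluorogenic readout (Ex 365/Em 440 nm) of 4-methylumbelliferone released from 1 mM 4-MU-alpha-galactoside by spleen homogenate, 40 min at 37C, pH 5.0. Data normalized to no-enzyme and enzyme controls; Hill-equation AC50 from compound titrations.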
For `COC(=O)C1=CN(C(C)C)C=C(C(=O)OC)C1c1cc2c(cc1Br)OCO2`, the Potency was inconclusive: 39.8 µM [activator, single point]. `Clc1cccc(CN2CCC(Cc3ccccc3)CC2)c1` was tested, and the Potency was inconclusive: 28.2 µM [inhibitor, partial curve]. In the case of `CCN(CC)C(=O)CSc1nc(O)cc(=O)n1-c1ccccc1OC`, the Potency was inconclusive: 44.7 µM [inhibitor, single point]. For `CCOC(=O)CC(=O)CSc1nc2ccc(C)cc2cc1C#N`, the “activity change, negative = inhibition” value was inactive: 4.7%. With `CCOC(=O)C1(CCOc2ccccc2)CCN(Cc2ccc(C)o2)CC1` the “activity change, negative = inhibition” value was inactive: -4.44%. With `CN(C)/C=N/c1nc2nccc(-c3cccs3)n2n1` the Potency was inconclusive: 28.2 µM [activator, single point]. In the case of `CCCCCCNC(=O)c1cc(-c2ccco2)nc2ccccc12`, the Potency was inconclusive: 11.2 µM [activator, single point]. In the case of `Nc1nc2nccc(-c3ccc(Cl)cc3)n2n1`, the Potency was inconclusive: 14.1 µM [activator, partial curve]. For `c1ccc(C2Nc3ccccc3-c3nc4ccccc4n32)cc1` (stereo not drawn), the Potency was inconclusive: 39.8 µM [activator, single point]. `COc1cc(C(=O)O[C@H]2C/C(C)=C/CC/C(C)=C/[C@@H](O)C2C(C)C)ccc1O` (stereo partly drawn) was tested, and the “activity change, negative = inhibition” value was inactive: -2.39%. `Cc1ccccc1C(=O)NC1CCS(=O)(=O)C1` (stereo not drawn) was tested, and the Potency was inconclusive: 0.224 µM [activator, full curve, poor fit]. In the case of `O=C(NCCCN1CCOCC1)c1cc(-c2ccc(Br)cc2)on1`, the Potency was inconclusive: 4.47 µM [activator, single point]. For `CC(C)CCn1c(Oc2ccc(Cl)cc2)nc2c1c(=O)n(C)c(=O)n2C`, the “activity change, negative = inhibition” value was inactive: -7.91%. With `N#Cc1nc(-c2ccco2)oc1NCCc1ccccc1` the Potency was inconclusive: 35.5 µM [inhibitor, single point]. For `c1cncc(C2Nc3ccccc3-c3nc4ccccc4n32)c1` (stereo not drawn), the Potency was inconclusive: 35.5 µM [activator, partial curve]. For `Cc1oc2c(CN3CCCC3)c(O)ccc2c(=O)c1Oc1ccccc1Br`, the Potency was inconclusive: 35.5 µM [activator, partial curve]. For `Cc1ccc(-c2nnc3c4ccccc4c(C)nn23)cc1NC(=O)CN1CCOCC1`, the “activity change, negative = inhibition” value was inactive: 6.13%. `CCCCC#CC1C=CC(OC(C)=O)C(COC(C)=O)O1` (stereo not drawn) was tested, and the activity change, negative = inhibition was inactive: 2.96% [at 17.5 µM]. With `Cc1cc(NCc2ccco2)nc2cc(O)ccc12` the Potency was inconclusive: 28.2 µM [activator, single point]. In the case of `N#Cc1cc([N+](=O)[O-])cnc1NCC(O)CO` (stereo not drawn), the Potency was inconclusive: 6.31 µM [activator, single point]. For `CCNc1nc(C)c(CN(C(C)=O)c2ccccc2)nc1C#N`, the Potency was inconclusive: 28.2 µM [activator, partial curve]. For `COc1ccc(C2CC(c3ccccc3)=NN2c2ccc(/C=N/NC(=O)c3ccncc3)cc2)cc1` (stereo not drawn), the Potency was inconclusive: 14.1 µM [activator, partial curve]. `Cc1c(-c2cccc(NC(=O)c3ccco3)c2)nc2ncccn12` was tested, and the Potency was inconclusive: 31.6 µM [activator, partial curve]. `Cn1c(=NCC(O)COc2ccccc2)sc2ccccc21` (stereo not drawn) was tested, and the Potency was inconclusive: 44.7 µM [inhibitor, single point]. `CCNc1ncc2nc(-c3ccc(Cl)cc3)c(=O)n(C)c2n1` was tested, and the Potency was inconclusive: 3.16 µM [activator, partial curve, poor fit]. With `Cc1ccc(S(=O)(=O)CC(=O)c2cc(C)c(O)c(C)c2)cc1` the “activity change, negative = inhibition” value was inactive: 7.33%. `O=c1oc2c(CN3CCOCC3)c(O)c(Cl)cc2c2c1CCC2` was tested, and the Potency was inconclusive: 39.8 µM [activator, partial curve]. In the case of `COC(=O)c1ccc2nc(-c3ccc(S(C)(=O)=O)cc3)cn2c1`, the Potency was inconclusive: 31.6 µM [inhibitor, single point]. In the case of `CC(C)Cn1c(N)c(C(=O)NCc2cccs2)c2nc3ccccc3nc21`, the Potency was inconclusive: 39.8 µM [activator, partial curve]. For `Cc1cc2oc(=O)cc(Cn3ncc(Cl)c(Cl)c3=O)c2cc1Cl`, the “activity change, negative = inhibition” value was inactive: 2.1%. For `CCCCC(NS(=O)(=O)c1ccc(C)cc1)C(=O)Oc1ccc2c3c(c(=O)oc2c1)CCC3` (stereo not drawn), the Potency was inconclusive: 28.2 µM [activator, partial curve]. With `COc1cccc(OCc2nc3ccccc3c(=O)n2N)c1` the Potency was inconclusive: 50.1 µM [inhibitor, single point]. For `Cc1cccn2c(=O)c3cc(C(=O)N4COCC4(C)C)sc3nc12`, the Potency was inconclusive: 35.5 µM [activator, partial curve]. For `CC(C)Cn1c(-c2cccs2)nc2nc3ccccc3nc21`, the Potency was inconclusive: 28.2 µM [activator, partial curve]. With `Cc1ccc(C)c2nc3sc(C(=O)O)cc3cc12` the Potency was inconclusive: 28.2 µM [activator, partial curve]. For `COC(=O)Oc1ccc(/C=C/C(=O)OC(C)C)cc1OC(=O)OC`, the Potency was inconclusive: 50.1 µM [inhibitor, partial curve]. In the case of `CCc1ccc(-c2cc(C(=O)NCc3ccco3)c3ccccc3n2)s1`, the Potency was inconclusive: 39.8 µM [activator, partial curve]. In the case of `Cc1ncsc1C(=O)N1CCCC(CNS(=O)(=O)c2cccs2)C1` (stereo not drawn), the “activity change, negative = inhibition” value was inactive: 11.9%. `Cc1ccc(C)n1-c1nn(S(=O)(=O)c2cccc(C(F)(F)F)c2)c2cccc(F)c12` was tested, and the Potency was inconclusive: 11.2 µM [inhibitor, partial curve]. For `O=C(COC(=O)CNC(=O)C1CCCCC1)Nc1ccc2c(c1)OCCO2`, the “activity change, negative = inhibition” value was inactive: -0.641%. With `OC[C@@H]1[C@@H](c2ccc(Cl)cc2)C(c2ccc(F)cc2)=NN1c1ccccc1` the Potency was inconclusive: 35.5 µM [activator, partial curve]. In the case of `O=C(CSc1nnnn1C1CCCCC1)N1CCc2ccccc21`, the “activity change, negative = inhibition” value was inactive: 0.827%. For `COCCOC(=O)c1cc(C(=O)c2cc(F)ccc2O)coc1=N`, the Potency was inconclusive: 50.1 µM [activator, single point]. `CC(C)(C)c1ccc(NC(=O)c2ccccc2)c([N+](=O)[O-])c1` was tested, and the Potency was inconclusive: 50.1 µM [inhibitor, single point]. With `Nc1c(C(=O)NCc2ccc3c(c2)OCO3)c2nc3ccccc3nc2n1CCCN1CCOCC1` the Potency was inconclusive: 28.2 µM [activator, partial curve]. For `COC(=O)c1nc2nc(-c3cccs3)cc(C(F)(F)F)n2n1`, the Potency was inconclusive: 31.6 µM [activator, partial curve]. With `COc1cc2nc(N3CCN(C(=O)C4CCCO4)CC3)nc(N)c2cc1OC` (stereo not drawn) the Potency was inconclusive: 35.5 µM [activator, partial curve] [middle of 4 runs]. `O=c1c(-c2nnc(SCc3ccc(Cl)cc3Cl)o2)cccn1Cc1ccccc1` was tested, and the Potency was inconclusive: 17.8 µM [activator, partial curve]. `COc1ccc(C(=O)Nc2nc3c(s2)CCCC3)cc1S(=O)(=O)N1CCCc2ccccc21` was tested, and the Potency was inconclusive: 7.94 µM [activator, single point]. With `CCN1CCN(CC(=O)Nc2cc3c(cc2C(C)=O)OCO3)CC1` the “activity change, negative = inhibition” value was inactive: -1.98%. `CN1CCN(c2ccc(Nc3c4ccccc4nc4ccccc34)cc2)CC1` was tested, and the Potency was inconclusive: 35.5 µM [activator, single point]. With `O=C(CSc1ncn[nH]1)c1cccc([N+](=O)[O-])c1` the “activity change, negative = inhibition” value was inactive: 8.81%. `O=C(C[n+]1ccc(C(=O)N/N=C/c2ccc(Br)cc2)cc1)c1ccccc1` was tested, and the “activity change, negative = inhibition” value was inactive: 2.44%. For `CN1C(=O)NC(NS(=O)(=O)c2ccc(N)cc2)(C(F)(F)F)C1=O` (stereo not drawn), the Potency was inconclusive: 39.8 µM [inhibitor, single point]. With `CCCC(=O)Nc1ccccc1N1CCN(C(=O)C(C)C)CC1` the Potency was inconclusive: 28.2 µM [inhibitor, single point]. In the case of `CC(C)Sc1nc2sc(-c3ccccc3)cc2c(=O)n1N`, the Potency was inconclusive: 17.8 µM [activator, partial curve, poor fit]. With `COCCCn1c(-c2cccs2)nc2nc3ccccc3nc21` the Potency was inconclusive: 39.8 µM [activator, partial curve]. `CCN(CC)Cc1c(O)c(Cl)cc2c(C)cc(=O)oc12` was tested, and the Potency was inconclusive: 35.5 µM [activator, partial curve]. `COc1cccc(CNC(=O)CCC2CCCN(C(=O)Cc3ccccc3F)C2)c1` (stereo not drawn) was tested, and the “activity change, negative = inhibition” value was inactive: -13.4%. In the case of `COc1ccc(S(=O)(=O)N2CCN(c3ccccc3OC)CC2)cc1OC`, the Potency was inconclusive: 20 µM [inhibitor, partial curve, poor fit]. `CC(C)(C)c1cc(C(=O)/C=C/c2ccc(C(=O)O)cc2)cc(C(C)(C)C)c1` was tested, and the “activity change, negative = inhibition” value was inactive: -7.62%. `CC1(C)CC(C(CC(=O)O)c2ccccc2)CCO1` (stereo not drawn) was tested, and the Potency was inconclusive: 50.1 µM [inhibitor, single point]. `CC(=O)c1ccccc1NC(=O)COC(=O)c1ccc2c(c1)nc(C)n2-c1ccccc1` was tested, and the Potency was inconclusive: 39.8 µM [inhibitor, single point]. With `Cc1ccc(-c2cc(C(=O)NCCCn3ccnc3)c3ccccc3n2)s1` the Potency was inconclusive: 31.6 µM [activator, single point]. With `CCOc1ccccc1NC(=O)N1CCC(NC(=O)c2cccc(C)c2)CC1` the Potency was inconclusive: 31.6 µM [inhibitor, single point]. `C=CCNC(=O)c1c(N)n(-c2cccc(S(N)(=O)=O)c2)c2nc3ccccc3nc12` was tested, and the Potency was inconclusive: 35.5 µM [activator, partial curve]. In the case of `O=C(NCc1ccccc1)c1cnsn1`, the Potency was inconclusive: 35.5 µM [inhibitor, single point]. In the case of `Cc1oc(=O)c(NC(=O)c2cccc(Cl)c2)cc1C(=O)c1ccccc1`, the “activity change, negative = inhibition” value was inactive: -4.82%.
